In article PMC6345968, “Structural basis for species-selective targeting of Hsp90 in a pathogenic fungus” (Nature Communications, 2019):

Legend:
[1] = system: GFP-marked C. albicans CaCi-2; assay: 384-well co-culture with fluconazole, fungal burden by GFP fluorescence; conditions: Candida albicans, read-out: concentration for 50% reduction in the fungal burden
[2] = system: S. cerevisiae expressing human Hsp90β; type: cell-based, Saccharomyces cerevisiae; conditions: isogenic strains
Excerpt: (§1) A critical consideration in the development of an effective antifungal is not just target binding, but also access to the target across microbial cell membranes and cell walls. Therefore, we evaluated the potency and selectivity of oxime analogs using drug susceptibility assays. We used strains of S. cerevisiae where both endogenous genes encoding isoforms of Hsp90 have been disrupted and growth is solely dependent upon C. albicans or human Hsp90 isoforms.
(§2) Antifungal tolerance and resistance were determined in flat bottom, 96-well microtiter plates using a modified broth microdilution protocol as described[8],[10]. All Hsp90 inhibitors were formulated in dimethyl sulfoxide (DMSO, Sigma Aldrich Co.); fluconazole was dissolved in sterile ddH2O. Each strain was tested in duplicate on at least two occasions. […] To test for fungicidal activity, cultures from MIC plates were spotted on YPD agar plates using a spotter (Frogger, V&P Scientific, Inc). Plates were photographed after 48 h of incubations at 30 °C.

[3] = system: S. cerevisiae expressing human Hsp90α; type: cell-based, Saccharomyces cerevisiae; conditions: isogenic strains
Excerpt: as §1, §2

[4] = system: 293T cells expressing luciferase; assay: 384-well co-culture with fluconazole, human cell survival by luminescence; conditions: at 1 uM; reviewer's reading of Fig. 8b
[5] = system: C. albicans clinical isolate CaCi-2; assay: Growth inhibition in culture; type: cell-based, Candida albicans; conditions: 48-hour exposure
Excerpt: (§3) We began by measuring inhibition of C. albicans growth in culture.
(§4) Each colored box represents the mean of duplicate determinations. Color scale for relative growth is provided to far right of panel, green: no inhibition to black: complete inhibition. […] Cultures were then fixed and stained by Periodic Acid-Schiff (PAS) technique to visualize fungal burden (dark red/purple signal) and underlying human cells (light pink signal). Representative fields from conventional light photomicrographs are presented at the same magnification in all panels. The experiment was repeated in two independent biological replicates to confirm results. Scale bar, 100 μm
as §2

C. albicans SN95 = assay: Growth inhibition in culture; type: cell-based, Candida albicans; conditions: 48-hour exposure
Excerpt: as §3, §4, §2

[6] = system: S. cerevisiae expressing C. albicans Hsp90 Leu130Ala/Phe131Tyr; assay: Broth microdilution growth inhibition, Hsp90 variant yeast; type: cell-based, Saccharomyces cerevisiae
Excerpt: (§5) We tested their importance by generating three C. albicans Hsp90 variants with the native fungal residues changed to their corresponding human residues (Fig. 5a, b). The first variant was a single substitution, replacing fungal threonine with human glutamine at position 12 (Thr12Gln) located between the N-terminal β-strand and α-helix. […] The second variant involved two amino acid changes within α-helix 7 (Leu130Ala and Phe131Tyr) which were predicted to impact contact with the para-methoxybenzyl substituent.
as §2

[7] = system: S. cerevisiae expressing C. albicans Hsp90 Thr12Gln; assay: as above; type: cell-based, Saccharomyces cerevisiae
Excerpt: as §5, §2

[8] = system: S. cerevisiae expressing C. albicans Hsp90 Lys158Ser/Thr162Arg; assay: as above; type: cell-based, Saccharomyces cerevisiae
Excerpt: as §5, §2

Which EC50 [1] does the source give for `COc1ccc(CON=C2C=CC=CC3OC3CC(C)OC(=O)c3c(O)cc(O)cc3C2)cc1` (stereo not drawn) [CMLD013075] here?
The EC50 was ~1000 nM.

What about the “activity compared with strain expressing C. albicans Hsp90” value [2] of the same compound?
The value was “more active against a yeast strain engineered to express C. albicans Hsp90”.

And the “activity compared with strain expressing C. albicans Hsp90” value [3]?
The value was “more active against a yeast strain engineered to express C. albicans Hsp90”.

And the “reduction of human cell survival” value [4]?
The value was 50%.

And the single-agent growth inhibition [5]?
Its single-agent growth inhibition is “comparable single-agent activity”.

What about the single-agent growth inhibition (C. albicans SN95) of the same compound?
The single-agent growth inhibition was “comparable single-agent activity”.

And the “change of potency relative to wild-type C. albicans Hsp90” value [6]?
The value was “decreasing potency”.

What about the “change of potency relative to wild-type C. albicans Hsp90” value [7] of the same compound?
Its value is “did not alter the potency”.

And the “change of potency relative to wild-type C. albicans Hsp90” value [8]?
The value was “did not alter the potency”.
